Results from article PMC7819943, “Rice protein-binding microarrays: a tool to detect cis-acting elements near promoter regions in rice”.
Some of the results follow.

What follows are sequences tested against T1, OsWOX13 (Oryza sativa, UniProt Q5QMM3 1-267) (assay: protein-binding microarray (RPBM); PBS, 2% BSA, 51.3 ng/ul salmon testes DNA, 50 uM zinc acetate, 200 nM TF, 25 C, 1 h; high values mean tight binding). Settings: protein: recombinant; tags: N-terminal polyhistidine and DsRed monomer fusion (pET32a); label: CyDye5-dUTP incorporated in the synthesized complementary strand; 3' TTTTT single-stranded linker to array surface; dsDNA, one strand shown.
T1 sequence: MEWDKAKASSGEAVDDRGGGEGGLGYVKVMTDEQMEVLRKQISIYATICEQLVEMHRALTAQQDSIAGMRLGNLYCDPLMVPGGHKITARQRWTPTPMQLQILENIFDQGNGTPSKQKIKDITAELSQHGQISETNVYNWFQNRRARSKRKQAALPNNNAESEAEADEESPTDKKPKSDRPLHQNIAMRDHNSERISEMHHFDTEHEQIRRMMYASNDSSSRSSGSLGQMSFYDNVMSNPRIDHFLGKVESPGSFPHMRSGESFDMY
In short: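 In PBS with 2% BSA, salmon testes DNA and 50 µM zinc acetate, 200 nM protein was incubated on a custom Agilent array at 25 °C for 1 h and then washed off. The array had been made double-stranded by primer extension with Cy5-dUTP and blocked with 2% BSA. The proteins were transcription factors fused N-terminally to polyhistidine and DsRed, expressed in E. coli BL21-CodonPlus and purified on Ni–NTA. The binding signal is per-feature fluorescence intensity (arbitrary units) from an Axon 4000B scanner.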

Sequence	binding signal
TAAATATACTTGATTTACTGCTGTGTGACCATATATGCTTCGGAGTCACCTAGTGCAG	12000 fluorescence intensity (a.u.)
ACAACCAACTGATTGAAGACGTCCACGTGCTTCCTAAGATCGGAGTCACCTAGTGCAG	35200 fluorescence intensity (a.u.)
GTTGACGTGCGTGTGCTTGATTAGCAGAGATGCCTGAAGACGGAGTCACCTAGTGCAG	7090 fluorescence intensity (a.u.)
ATAAATAATACTTAATCAATTATGTGCTAATGAGGTTTCTCGGAGTCACCTAGTGCAG	7620 fluorescence intensity (a.u.)
ATTGTTGCTGCTGCTGGATTGATTAGTGGTTAAGCAGATTCGGAGTCACCTAGTGCAG	5320 fluorescence intensity (a.u.)
CAAAATATGTTTGTCAAAATTATGACAAGTTTCTACATTACGGAGTCACCTAGTGCAG	3290 fluorescence intensity (a.u.)
CTTGTTTTGATTGAGACCAATTTATTGGTAATGCCCATGCCGGAGTCACCTAGTGCAG	36600 fluorescence intensity (a.u.)
CAATTATTAATTTAATGAAACTATTTATAAATATTACTATCGGAGTCACCTAGTGCAG	13600 fluorescence intensity (a.u.)
GGGATAACTATGTCTAGTCAATTCTAACATTTATCTTCCCCGGAGTCACCTAGTGCAG	5900 fluorescence intensity (a.u.)
TTTACTAATGATTGATCTGGATCATAGGTGCGGCGTGTTTCGGAGTCACCTAGTGCAG	37500 fluorescence intensity (a.u.)
CTAGTTTTATGATTGAGGGATGTGACTCAATCAAGAGCGACGGAGTCACCTAGTGCAG	31100 fluorescence intensity (a.u.)
ATTAATTATAGTAGATTTTGTTAACCTAGCTAGAAACTATCGGAGTCACCTAGTGCAG	18900 fluorescence intensity (a.u.)
ACCTTAACTGCAGTTAAGACTAATGAAAGTTTCACCTGCACGGAGTCACCTAGTGCAG	24800 fluorescence intensity (a.u.)
CATTAATTAAACGATCCGCCATTACCCGCACAAGCACCGGCGGAGTCACCTAGTGCAG	32600 fluorescence intensity (a.u.)
ATCACAGATGATTTTGTTGTGACAGAATTCTATGTATACACGGAGTCACCTAGTGCAG	13500 fluorescence intensity (a.u.)
AGAATTGATAGTTAAAGAACTTAATAATATTGTTGATATTCGGAGTCACCTAGTGCAG	17700 fluorescence intensity (a.u.)
CTGATTAGTGTTTAGAATCCACCTTCATTCTCCTCCTTGGCGGAGTCACCTAGTGCAG	37000 fluorescence intensity (a.u.)
CATCAGATCATTGATCAATGTTTCATCAGCTCATCACTTCCGGAGTCACCTAGTGCAG	3990 fluorescence intensity (a.u.)
GAGACATCAACTAATTATTTACTACAGAAAAGAGGTCGTGCGGAGTCACCTAGTGCAG	11500 fluorescence intensity (a.u.)
CTTAATTAGCATGAAACACAAGTAGTATATGATTACACCACGGAGTCACCTAGTGCAG	33100 fluorescence intensity (a.u.)
TTCCGGTGATTAGTCAACTGCCACGACCAGATTAATCTACCGGAGTCACCTAGTGCAG	20300 fluorescence intensity (a.u.)

Sequence	binding signal
CAAATTAGAATTTGGTATCTAATTTGTTTATATCGAGGGGCGGAGTCACCTAGTGCAG	17700 fluorescence intensity (a.u.)
CAGAAAATTTTCATATTTATGAATTCATCTATTTAATGTACGGAGTCACCTAGTGCAG	5640 fluorescence intensity (a.u.)
TTCATAAATTAGTTGAGCTGCTCTGATCGTTTGAGCTTGGCGGAGTCACCTAGTGCAG	15100 fluorescence intensity (a.u.)
CTCTAGCGGTGAAGATGCCTTGATTGGTGATGAAGATTGCCGGAGTCACCTAGTGCAG	8840 fluorescence intensity (a.u.)
CTCTAGGTAATTGGATTGGAGCCAGGGATTTATATATAGTCGGAGTCACCTAGTGCAG	14100 fluorescence intensity (a.u.)
AAATTCGTGAAGAAATCAATTAATTTAATTATTGTCCCACCGGAGTCACCTAGTGCAG	13700 fluorescence intensity (a.u.)
GATTTGATTTTGAGGCGGATGGAGGAGTTTGAACGGAGGCCGGAGTCACCTAGTGCAG	3840 fluorescence intensity (a.u.)
ATGTACCAATCGATCACCCATCAATTCATCATCAAGATTGCGGAGTCACCTAGTGCAG	4800 fluorescence intensity (a.u.)
AGTTCAACAAATTGTTTCACTCATCACTCATCACTCGTTCCGGAGTCACCTAGTGCAG	4690 fluorescence intensity (a.u.)
ACTTTTAACTCAAAATTTAAACTTTAAAGTCAAATTTTGACGGAGTCACCTAGTGCAG	6980 fluorescence intensity (a.u.)
TATAATAATTAAAACTCAATCAATCATACGTTAATAGCACCGGAGTCACCTAGTGCAG	20000 fluorescence intensity (a.u.)
CGTAATCACTGAATGCTAATCTATCACTAGTAAAACCCATCGGAGTCACCTAGTGCAG	18700 fluorescence intensity (a.u.)
AAAATTGAATATTGATGAATAAATTGATGGTGAAATTTATCGGAGTCACCTAGTGCAG	25200 fluorescence intensity (a.u.)
ACTAATTTAGTACGTACTACTCCAGTAGTTACACCTGCTTCGGAGTCACCTAGTGCAG	13000 fluorescence intensity (a.u.)
TGTAAGTTTATAAATTAAACACAACTGGGCAGTTCCACTCCGGAGTCACCTAGTGCAG	3690 fluorescence intensity (a.u.)
TCATAACTATTTTAATTGACATACAAACAATGAGGCGGCACGGAGTCACCTAGTGCAG	58300 fluorescence intensity (a.u.)
TCATCTCCTATTTAATTGGTGGTTTATTGTCGGATCGACTCGGAGTCACCTAGTGCAG	5740 fluorescence intensity (a.u.)
CATAACTGCAAATTTATCTCCCCGTTCGAAGTTCCCACGCCGGAGTCACCTAGTGCAG	40400 fluorescence intensity (a.u.)
ACGGGACAAGCTAAGCTTAATTGGCTCTTTGTAGCGCATGCGGAGTCACCTAGTGCAG	5570 fluorescence intensity (a.u.)
ATCTACAACTTTCTAATTGACTATTTTATTATTTGAGGTCCGGAGTCACCTAGTGCAG	9250 fluorescence intensity (a.u.)
AACCATCTATCAACTTCCTAATTAATGGCTACCTGTAGTACGGAGTCACCTAGTGCAG	20700 fluorescence intensity (a.u.)
